Measured values from PubChem BioAssay AID504339 (National Center for Advancing Translational Sciences (NCATS), 2011).
Out of some 390,000 compounds screened, about 17,000 (4.4%) were called active. The inconclusive results got no clear call from the source; some entries with a clear call stand among them for comparison. The call rests on the fitted dose curve; in most records, active means well fitted inhibition curve with a large enough effect; inconclusive means small, poorly fitted or top-dose-only effect; inactive means no such curve, though single readings can be large or run the other way. Potencies of inconclusive entries are doubtful fits and often do not repeat.

Target: Lysine-specific demethylase 4A (Homo sapiens) (UniProt O75164)
Chain of UniProt O75164 (O75164 whole entry, looked up, the tested form may be a part): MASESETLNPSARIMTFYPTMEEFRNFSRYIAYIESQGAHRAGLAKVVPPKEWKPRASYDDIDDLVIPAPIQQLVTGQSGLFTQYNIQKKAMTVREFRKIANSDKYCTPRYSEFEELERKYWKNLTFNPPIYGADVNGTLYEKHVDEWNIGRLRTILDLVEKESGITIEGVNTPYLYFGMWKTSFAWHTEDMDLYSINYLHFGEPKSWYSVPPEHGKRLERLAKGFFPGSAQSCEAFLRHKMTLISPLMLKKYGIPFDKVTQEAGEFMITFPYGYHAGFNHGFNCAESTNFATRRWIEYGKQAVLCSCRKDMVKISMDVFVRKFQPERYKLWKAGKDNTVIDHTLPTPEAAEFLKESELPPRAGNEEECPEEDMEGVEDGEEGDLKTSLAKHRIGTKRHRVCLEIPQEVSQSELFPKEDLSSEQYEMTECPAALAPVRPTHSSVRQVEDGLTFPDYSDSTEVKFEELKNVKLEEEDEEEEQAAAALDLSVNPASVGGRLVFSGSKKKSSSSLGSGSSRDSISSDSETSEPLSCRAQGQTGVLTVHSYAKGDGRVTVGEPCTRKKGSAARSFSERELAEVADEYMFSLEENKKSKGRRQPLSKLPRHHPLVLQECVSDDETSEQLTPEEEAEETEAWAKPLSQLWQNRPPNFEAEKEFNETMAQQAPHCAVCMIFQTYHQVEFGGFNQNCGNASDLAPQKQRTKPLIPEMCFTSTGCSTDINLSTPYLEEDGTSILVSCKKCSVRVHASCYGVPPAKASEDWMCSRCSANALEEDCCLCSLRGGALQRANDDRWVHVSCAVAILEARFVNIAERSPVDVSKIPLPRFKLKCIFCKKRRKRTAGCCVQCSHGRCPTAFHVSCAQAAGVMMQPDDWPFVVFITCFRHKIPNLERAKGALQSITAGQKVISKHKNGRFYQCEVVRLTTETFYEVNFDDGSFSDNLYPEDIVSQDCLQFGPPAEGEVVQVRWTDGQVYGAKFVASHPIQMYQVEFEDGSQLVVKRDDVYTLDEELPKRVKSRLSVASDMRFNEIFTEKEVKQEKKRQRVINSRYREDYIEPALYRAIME
Assay: qHTS Assay for Inhibitors of JMJD2A-Tudor Domain; further: nearly all actives have a fitted effect of over 50% in size
Conditions: AlphaScreen JMJD2A-Tudor / H3K4me3 peptide binding; series mostly up to 114 µM
Potency means the concentration at half of the fitted maximal effect; tags describe the fitted curve by direction and shape.

SMILES | Potency
C/C=C/c1ccc(OCC(O)CNCC(c2ccc(OC)cc2)N(C)C)c(OC)c1 (centres undefined) | active: 22.4 µM
COC(=O)CCP(=O)(O)Cc1ccccc1CP(=O)(O)CCC(=O)OC | inconclusive: 50.1 µM [inhibitor, partial curve]
CC(C)CNC(=O)c1c(-c2ccccc2)c(-c2ccccc2)nn(C)c1=O | inactive
O=C1Nc2ccccc2C1=Nc1ccc2[nH]c3ccccc3c2c1 | active: 35.5 µM
COc1ccccc1CNC(=O)C1CCN(Cc2cc3ccccc3n2Cc2cccc(C)c2)CC1 | inactive
COc1ccc(CCC(=O)NCc2nc3cccnc3n2Cc2cccc(OC)c2)cc1 | inactive
Cc1ccc(-c2csc(=Nc3cccnc3)n2CCCN2CCCC2=O)cc1C | inconclusive: 44.7 µM [inhibitor, single point]
CC(C)(C)Nc1nc(NN)nc(NC(C)(C)C)n1 | inconclusive: 89.1 µM [inhibitor, single point]
COc1ccc(NS(=O)(=O)c2ccc3c(c2)CCCN3C(=O)C2CCC2)cc1OC | inactive
CC(C)C(=O)N(c1ccc2oc(=O)sc2c1)S(=O)(=O)c1ccccc1 | inconclusive: 89.1 µM [inhibitor, partial curve]
Cc1[nH]c2ccccc2c1/C=N/NC(=O)Nc1ccccc1 | inactive
CC1CCN(S(=O)(=O)c2ccc3c(ccn3CC(=O)NCc3ccc(N(C)C)cc3)c2)CC1 | inconclusive: 25.1 µM [inhibitor, full curve]
Cc1ccc(NC(=S)NNS(=O)(=O)c2ccc3ccccc3c2)cc1Cl | inconclusive: 50.1 µM [inhibitor, partial curve]
COc1ccc2[nH]c3c(c2c1)CCN1C(=O)C(CC(=O)NCC24CC5CC(CC(C5)C2)C4)C[C@H](C(=O)N2CCCCC2)[C@@]31C (some centres undefined) | inconclusive: 44.7 µM [inhibitor, partial curve]
O=C1/C(=C\c2ccc(-c3ccccc3[N+](=O)[O-])o2)C(c2ccccc2)=NN1c1ccccc1 | active: 5.62 µM
Cc1ccc(C2CC(=O)C(C=NCCN3CCN(C(=S)Nc4ccc(F)cc4)CC3)=C(O)C2)cc1 (centres undefined) | inconclusive: 50.1 µM [inhibitor, partial curve]
Cc1ccc(CSC2=Nc3ccccc3C3=NC(CC(=O)NCc4ccco4)C(=O)N23)cc1 (centres undefined) | inconclusive: 89.1 µM [inhibitor, partial curve]
CCOC(=O)c1ccc(-n2c(CCC(=O)O)ccc2-c2ccc(Br)cc2)cc1 | inconclusive: 44.7 µM [inhibitor, partial curve]
COc1cc(N=Cc2c(CO)cnc(C)c2O)cc(OC)c1OC | inconclusive: 39.8 µM [inhibitor, single point]
